{"source": "PubChem BioAssay AID686979", "about": "(National Center for Advancing Translational Sciences (NCATS), 2013)", "note": "Where “and” joins values, the source holds several entries; their conditions need not be identical. Identical values can stand only once. Hit rate of the full screen: of about 420,000 compounds, about 50,000 (12%) were called active. This list was built around the results that the source calls inconclusive (neither active nor inactive); the mix of calls is not that of the screen. Calls come from the whole dose curve; as a rule, active = well fitted inhibition curve with a large enough effect; inconclusive = small, poorly fitted or top-dose-only effect; inactive = flat fitted curve, though single readings scatter. No potency is given beside an inconclusive call; the fits are too rough. % is set by controls: 0 for no effect and ±100 for the full control effect; potency is the fitted concentration of half-maximal effect; tags give direction and shape of the fitted curve."}
{"experiment": "qHTS for Inhibitors of human tyrosyl-DNA phosphodiesterase 1 (TDP1): qHTS in cells in presence of CPT; note: nearly all actives have a fitted effect of over 55% in size", "conditions": "chicken DT40 Tdp1-/-;hTDP1 cells + 20 nM CPT, ATP luminescence, 48 h; activity change, negative = growth inhibition: at 46.2 µM (top of the series) unless noted", "in_short": "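Chicken DT40 Tdp1-/- cells complemented with human TDP1, 400 cells/well, exposed to compounds plus 20 nM camptothecin for at least 48 h at 37 C; viability read as ATP content by CellTiter-Glo luminescence.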"}
{"smiles": "Cc1c(Cl)cccc1NC(=O)Cn1c(=O)n(Cc2ccco2)c(=O)c2oc3ccccc3c21", "Potency": "inconclusive [inhibitor, single point]"}
{"smiles": "CC(=O)C1C(c2cccc(F)c2)NC(=O)NC1(O)C(F)(F)F", "note": "(centres undefined)", "Potency": "inconclusive [inhibitor, partial curve]"}
{"smiles": "CC(=O)N1CCCc2cc(S(=O)(=O)N3CCCC(C(=O)Nc4ccc(C)c(F)c4)C3)ccc21", "note": "(centres undefined)", "Potency": "inconclusive [inhibitor, single point]"}
{"smiles": "Cc1cccc(C(=O)Nc2ccccc2OCc2cc(=O)n3cc(C)ccc3n2)c1", "Potency": "inconclusive [inhibitor, partial curve]"}
{"smiles": "COC(=O)[C@H](Cc1ccccc1)N1C/C=C\\COc2c(Cl)cc(Cl)cc2S1(=O)=O", "Potency": "inconclusive [inhibitor, single point]"}
{"smiles": "COc1ccc(CCN2C(=S)N(C)C(=O)C2CC(=O)Nc2ccc(F)cc2)cc1", "note": "(centres undefined)", "Potency": "inconclusive [inhibitor, single point]"}
{"smiles": "CCOc1ccc2[nH]c3c(=O)n(CCC4=CCCCC4)cnc3c2c1", "Potency": "inconclusive [inhibitor, single point]"}
{"smiles": "CCOc1cc(C#N)c(NC(=O)c2ccco2)cc1OCC", "Potency": "active: 11.6 µM"}
{"smiles": "Fc1ccc(CN2CCN(c3ncnc4scc(-c5ccccc5)c34)CC2)cc1", "Potency": "inconclusive [inhibitor, single point]"}
{"smiles": "COc1ccc(C(=O)N(Cc2nc(-c3ccc(C)cc3)no2)C2CCCCC2)cc1OC", "Potency": "inconclusive [inhibitor, single point]"}
{"smiles": "O=C(Nc1ccc2ncccc2c1)c1cccc(Br)c1", "Potency": "inconclusive [inhibitor, single point]"}
{"smiles": "COc1cc(OC)c2c(C)c(CC(=O)N3CCCCC3)c(=O)oc2c1", "activity change, negative = growth inhibition": "inactive: 8.36%"}
{"smiles": "Cc1ccc2c(c1)COc1c3ccc(C(=O)N[C@@H](C)CO)cc3nn1-2", "Potency": "inconclusive [inhibitor, single point]"}
{"smiles": "CC1CCN(C(=O)c2[nH]cnc2C(=O)NCCCCCNC(=O)OC(C)(C)C)CC1", "Potency": "inconclusive [inhibitor, partial curve]"}
{"smiles": "COc1ccc2nc(C)cc(N3CC(C)OC(C)C3)c2c1", "note": "(centres undefined)", "Potency": "inconclusive [inhibitor, single point]"}
{"smiles": "c1ccc(CNc2nc(NCCc3ccncc3)c3sccc3n2)cc1", "Potency": "active: 18.4 µM"}
{"smiles": "O=S(=O)(c1cccs1)N1CCN(c2nc(-c3cccs3)nc3ccccc23)CC1", "Potency": "inconclusive [inhibitor, single point]"}
{"smiles": "Cc1cccnc1NC(=O)CNC(=O)c1ccccc1", "activity change, negative = growth inhibition": "inactive: -5.53%"}
{"smiles": "CCOC(=O)N1C=CC=C[C@@H]2[C@@H](N3C(=O)c4ccccc4C3=O)C(=O)N21", "Potency": "inconclusive [inhibitor, single point]"}
{"smiles": "CCCCOc1nc2ccccc2nc1C(C#N)C(=O)NC1CCCCC1", "note": "(centres undefined)", "Potency": "inconclusive [inhibitor, single point]"}
{"smiles": "CC(Oc1ccc(O)cc1)(P(=O)(O)O)P(=O)(O)O", "activity change, negative = growth inhibition": "inactive: 24.6%"}
{"smiles": "COC(=O)c1ccccc1NC(=O)CN1CCC(NC(=O)c2ccc(C)cc2)CC1", "Potency": "inconclusive [inhibitor, single point]"}
{"smiles": "CCN(CC)CCCNc1oc(-c2ccc(OC)cc2)nc1C#N", "Potency": "inconclusive [inhibitor, single point]"}
{"smiles": "COc1ccccc1-c1c(C)nn2c(N3CCN(c4ccc(F)cc4)CC3)cc(C)nc12", "Potency": "inconclusive [inhibitor, full curve]"}
{"smiles": "COC(=O)C1=C(CN2CCN(C)CC2)NC(=O)NC1c1cc(C)ccc1C", "note": "(centres undefined)", "activity change, negative = growth inhibition": "inactive: -15.6%"}
{"smiles": "CN(C)c1ccc2nc3c(=O)[nH]c(=O)nc-3n(CC(O)C(O)C(O)CO)c2c1", "note": "(centres undefined)", "activity change, negative = growth inhibition": "inconclusive: -34% [inhibitor]"}
{"smiles": "CCN(CC)C(=O)C1CCN(Cc2ccc(OCc3ccccc3)cc2)CC1", "activity change, negative = growth inhibition": "inactive: -28.6%"}
{"smiles": "CC1CCN(S(=O)(=O)c2cn(CC(=O)Nc3ccc(C#N)cc3)cn2)CC1", "Potency": "inconclusive [inhibitor, single point]"}
{"smiles": "NS(=O)(=O)c1ccc(CNC(=O)CNC(=O)c2ccc(F)cc2)cc1", "activity change, negative = growth inhibition": "inactive: -7.68%"}
{"smiles": "CSCCC(NC(=O)c1ccco1)C(=O)N1CCCC(C(F)(F)F)C1", "note": "(centres undefined)", "activity change, negative = growth inhibition": "inactive: -6.61%"}
{"smiles": "COc1cc2cc(CN(Cc3cccs3)C(=S)Nc3ccccc3)c(=O)[nH]c2cc1OC", "Potency": "inconclusive [inhibitor, single point]"}
{"smiles": "O=C(Nn1c(-c2ccncc2)nc2ccccc2c1=O)c1ccccc1Br", "activity change, negative = growth inhibition": "inactive: 27.1%"}
{"smiles": "CC(C)n1c(=O)c2oc3ccccc3c2n(CC(=O)Nc2ccccc2Cl)c1=O", "activity change, negative = growth inhibition": "inactive: -24.8%"}
{"smiles": "Cc1cccc(C=CC(=O)c2ccc(Cl)cc2)c1", "Potency": "inconclusive [inhibitor, single point]"}
{"smiles": "CCOc1ccc2nc(NC(=O)CSc3ccc(Cl)cc3)sc2c1", "Potency": "inconclusive [inhibitor, single point]"}
{"smiles": "CC(C)(O)C#Cc1ccc(N2C(c3ccsc3)=Cc3ccc(F)cc3C2c2c[nH]c3ccccc23)cc1", "note": "(centres undefined)", "Potency": "inconclusive [inhibitor, single point]"}
{"smiles": "COc1ccc(CCN2C(=O)CS/C2=N\\NC(=O)c2ccc(C(C)(C)C)cc2)cc1OC", "Potency": "inconclusive [inhibitor, single point]"}
{"smiles": "COc1cc(OC)cc(C(=O)N[C@H](C(=O)OCC(=O)N2CCc3ccccc32)C(C)C)c1", "activity change, negative = growth inhibition": "inactive: -20.7%"}
{"smiles": "COCCn1c(SCC(=O)Nc2ccccc2)nc2c(oc3ccccc32)c1=O", "activity change, negative = growth inhibition": "inactive: -27.5%"}
{"smiles": "COc1ccc(OC)c(NC(=O)CCN2CCN(C/C=C/c3ccccc3)CC2)c1", "Potency": "inconclusive [inhibitor, single point]"}
{"smiles": "Cn1c(=O)c2c(-c3ccccc3)n(-c3ccccc3Br)cc2n(C)c1=O", "Potency": "active: 4.61 µM"}
{"smiles": "Cc1ccccc1-c1ccc2ncnc(-n3ccnc3)c2c1", "Potency": "active: 20.6 µM"}
{"smiles": "COC(=O)[C@@]1(C)CCC[C@@]2(C)c3ccc(O)c(C(C)C)c3CCC21", "note": "(some centres undefined)", "Potency": "active: 16.4 µM"}
{"smiles": "CCOC(=O)c1ccccc1NC(=O)c1c(C)oc2ncnc(N3CCOCC3)c12", "Potency": "inconclusive [inhibitor, full curve, poor fit]"}
{"smiles": "O=C(CN1C(=O)COc2ccccc21)NCCCN1CCCCC1", "activity change, negative = growth inhibition": "inactive: 5.4%"}
{"smiles": "CCOc1ccc(/C=N/NC(=O)c2nnn(-c3nonc3N)c2CN2CCC(C)CC2)cc1", "activity change, negative = growth inhibition": "inactive: -22.1%"}
{"smiles": "O=[N+]([O-])c1nn(-c2ccccc2)n(O)c1=NCCc1ccccc1", "Potency": "active: 6.51 µM"}
{"smiles": "c1ccc(-c2cn3nc(-c4ccccc4)sc3n2)cc1", "activity change, negative = growth inhibition": "inactive: -0.811%"}
{"smiles": "O=C(Nc1cc(S(=O)(=O)N2CCOCC2)ccc1N1CCOCC1)c1ccccc1Cl", "activity change, negative = growth inhibition": "inactive: 5.6%"}
{"smiles": "COc1ccc(-c2nc3sc(CCNC(=O)C(=O)Nc4ccccc4C#N)c(C)n3n2)cc1", "activity change, negative = growth inhibition": "inactive: -9.01%"}
{"smiles": "Cc1cc(NC(c2ccc(Cl)cc2)c2ccc3cccnc3c2O)no1", "note": "(centres undefined)", "Potency": "active: 4.11 µM"}
{"smiles": "COc1cccc(OC)c1C(=O)OCC(=O)Nc1ccc(OC(F)(F)F)cc1", "Potency": "inconclusive [inhibitor, single point]"}
{"smiles": "CCOC(=O)c1sc(C)c2c1NC1(CCCCC1)NC2=O", "Potency": "inconclusive [inhibitor, single point]"}
{"smiles": "O=C(NCc1ccccc1)/C(=C\\c1cccc([N+](=O)[O-])c1)NC(=O)c1ccco1", "activity change, negative = growth inhibition": "inactive: -11.8%"}
{"smiles": "COc1cn(-c2ccccc2)nc1C(=O)OCC(=O)Nc1ccc(C)c(C)c1", "activity change, negative = growth inhibition": "inactive: 11.5%"}
{"smiles": "CCc1ccc(CCC(=O)Nc2ccc(C)c(C)c2)o1", "Potency": "inconclusive [inhibitor, single point]"}
{"smiles": "COc1ccc(/C=C/CN2CCC(n3nccc3NC(=O)C3CC3)CC2)cc1", "activity change, negative = growth inhibition": "inactive: -29.6%"}
{"smiles": "CCC1C/C(=C/c2cccs2)C(=O)/C(=C/c2cccs2)C1", "note": "(centres undefined)", "Potency": "inconclusive [inhibitor, single point]"}
{"smiles": "CCOc1ccc(CNC(=O)c2cc3ccccn3n2)cc1", "activity change, negative = growth inhibition": "inactive: -28.1%"}
{"smiles": "COc1cc(OC)c(OC)cc1/C=c1\\[nH]c(=O)/c(=C/c2cc(OC)c(OC)cc2OC)[nH]c1=O", "Potency": "active: 0.794 µM"}
{"smiles": "S=C1NC2(CCCCC2)NN1c1ccccc1", "activity change, negative = growth inhibition": "inactive: 23.1%"}
{"smiles": "O=c1cc(/C=C/c2cccs2)[nH]c2ccccc12", "Potency": "active: 2.59 µM"}
{"smiles": "CCC(C)OC(=O)C1=C(C)O[C@]23OC(N)=C(C#N)[C@]12C(=O)c1ccccc13", "note": "(some centres undefined)", "Potency": "inconclusive [inhibitor, single point]"}
{"smiles": "CC(C)N(Cc1ccccc1)C(=S)Nc1ccc(F)cc1", "activity change, negative = growth inhibition": "inactive: 3.33%"}
{"smiles": "COCCCNC(=O)c1ccc(Cn2c(=O)c3ccccc3n(Cc3ccc(Cl)cc3)c2=O)cc1", "Potency": "inconclusive [inhibitor, partial curve]"}
{"smiles": "CCCSc1nnc(NC(=O)c2ccco2)s1", "activity change, negative = growth inhibition": "inactive: -15.5%"}
{"smiles": "CN(C)C(=O)COC(=O)c1cccc(S(=O)(=O)N2CC3(C)CC2CC(C)(C)C3)c1", "note": "(centres undefined)", "Potency": "inconclusive [inhibitor, partial curve]"}
{"smiles": "COC(=O)c1c(-c2ccc(OC)cc2)sc2ccc(OC)cc12", "Potency": "inconclusive [inhibitor, single point]"}
{"smiles": "Cc1nn(C(=O)CCC(=O)NCc2ccc(OC(C)C)cc2)c2ccccc12", "activity change, negative = growth inhibition": "inactive: 7.73%"}
{"smiles": "CCN1CCN(C(=O)c2cc(COc3ccc4ncccc4c3)on2)CC1", "Potency": "active: 16.4 µM"}
{"smiles": "C=C[C@@H]1c2cc(C)ccc2N(S(=O)(=O)c2ccc(C)cc2)[C@H](c2ccc(OC(C)=O)cc2)C1(C#N)C#N", "Potency": "active: 11.2 µM and active: 4.61 µM"}
{"smiles": "Cc1ccc(C)c(N2CCN(S(=O)(=O)c3ccc(-c4cc(C)no4)s3)CC2)c1", "Potency": "inconclusive [inhibitor, single point]"}
{"smiles": "Cc1cccn2cc(CNC(=O)CC3CCCC3)nc12", "activity change, negative = growth inhibition": "inactive: 9.57%"}
{"smiles": "c1ccc(-c2cccc(-c3ccccn3)n2)nc1", "Potency": "active: 2.06 µM"}
